Reference: PubChem BioAssay AID504832 (National Center for Advancing Translational Sciences (NCATS), 2011)
Out of some 310,000 compounds screened, about 18,000 (5.8%) were called active. This list was built around the results that the source calls inconclusive (neither active nor inactive); the mix of calls is not that of the screen. The call rests on the fitted dose curve; in most records, active means well fitted inhibition curve with a large enough effect; inconclusive means small, poorly fitted or top-dose-only effect, or another doubt; inactive means no such curve, though single readings can be large or run the other way. No potency is given beside an inconclusive call; the fits are too rough.

Assay: Primary qHTS for delayed death inhibitors of the malarial parasite plastid, 48 hour incubation
Settings: P. falciparum luciferase growth in erythrocytes; series mostly up to 28.7 µM
How it was run: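 Luciferase-expressing P. falciparum in infected erythrocytes (2% hematocrit, 0.1% parasitemia final) in RPMI 1640/0.5% Albumax were exposed to compound for 48 hours at 37 C, 5% CO2; growth read as luminescence.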
Potency means the concentration at half of the fitted maximal effect; tags describe the fitted curve by direction and shape.

SMILES | Potency
COc1cccc(Cn2c(=O)ccc3ccccc32)c1 | inactive
CC[n+]1c(C)cc2c(sc3ccccc32)c1C | inconclusive [inhibitor, full curve, poor fit]
Cc1ccc2cc3cc(C(=O)NCCN4CCOCC4)oc3nc2c1 | inconclusive [inhibitor, partial curve]
COc1ccc(OC)c(-c2cc(C(=O)N3CCN(c4ncccn4)CC3)c3ccccc3n2)c1 | inconclusive [inhibitor, single point]
OCC1(CCc2ccccc2)CCN(Cc2ccc3nsnc3c2)CC1 | inconclusive [inhibitor, single point]
CCOc1ccc(NC2=NC(C)(C)N=C(N)N2)cc1 | inconclusive [inhibitor, full curve, poor fit]
COc1ccc(NC(=O)CSc2nnc(N)s2)c([N+](=O)[O-])c1 | inactive
Cc1cccc(NC(=S)NCc2ccc(F)cc2)c1C | inconclusive [inhibitor, single point]
N=c1n(CCN2CCCC2)c2ccccc2n1CC(O)c1ccc(Cl)c(Cl)c1 (centres undefined) | inconclusive [inhibitor, full curve, poor fit]
Cc1cc(=S)c2cccc(C)c2[nH]1 | inconclusive [inhibitor, single point]
CC(=O)N1CCN(C(=O)c2ccc(OC3CCN(Cc4ccccn4)CC3)cc2)CC1 | inconclusive [inhibitor, full curve, poor fit]
Cc1nn(CC(=O)N2CCN(C)CC2)c(=O)c2c1sc1ccccc12 | inactive
CNc1ccc(/C=C2\CSc3ccccc3C2=O)cc1[N+](=O)[O-] | inconclusive [inhibitor, single point]
Cc1onc(C(=O)N2CCC(Cc3ccccc3)CC2)c1[N+](=O)[O-] | inconclusive [inhibitor, partial curve, poor fit]
COc1ccc(CCNC(=O)c2cnc(C)cn2)cc1 | inconclusive [inhibitor, partial curve, poor fit]
NC(=O)COC(=O)c1ccc(Cl)c(S(=O)(=O)N2CCN(c3ccc(F)cc3)CC2)c1 | inactive
COc1ccc(OC)c(CNc2ncc(-c3ccc(F)cc3)n2C)c1 | inconclusive [inhibitor, single point]
OC(C[n+]1ccccc1)c1ccccc1 (centres undefined) | inconclusive [inhibitor, full curve]
CCN(CC)C(=O)COc1coc(CN2CCN(Cc3ccccc3)CC2)cc1=O | inactive
